{"source": "ChEMBL document CHEMBL4888484", "about": "“Replenishing the malaria drug discovery pipeline: Screening and hit evaluation of the MMV Hit Generation Library 1 (HGL1) against asexual blood stage Plasmodium falciparum ,using a nano luciferase reporter read-out” (2022)", "note": "Out of some 150,000 compounds screened, about 540 (0.36%) showed an effect of 50% or more. This is one part of the list."}
{"test_system": "Plasmodium falciparum", "assay": "Primary screen in NF54 nanoGlo assay, in single point, at 2uM, 72h; a lower Z score goes with more inhibition", "format": "functional, Erythrocyte", "settings": "timepoint 72 hour", "units": {"% Inhibition": "%"}}
{"smiles": "Cc1nnc(-c2nnc(NCc3ccccc3Cl)c3ccccc23)o1", "% Inhibition": -10, "Z score": 1.17}
{"smiles": "O=S(=O)(Cc1ccccc1)N1CC[C@H](c2noc(-c3cccnc3)n2)C1", "% Inhibition": -7, "Z score": 0.86}
{"smiles": "Cn1cc(NC(=O)c2cc3ccccc3o2)ccc1=O", "% Inhibition": -4, "Z score": 0.73}
{"smiles": "CC[C@H](C)Cc1nc(N)c(C#N)c(-c2ccc(N(C)C)cc2)c1C", "% Inhibition": -9, "Z score": 1.23}
{"smiles": "COC(=O)c1ccc(NC(=O)Cn2nc3nc(N4CCCC4)ccn3c2=O)cc1", "% Inhibition": -20, "Z score": 2.18}
{"smiles": "CCCN(CCC)S(=O)(=O)c1ccc2c(c1)OC[C@@H](C(=O)N1CCCC1)O2", "% Inhibition": -17, "Z score": 2.91}
{"smiles": "CCN(C[C@H]1CCCCO1)C(=O)Nc1cccc2[nH]nnc12", "% Inhibition": -1, "Z score": 0.21}
{"smiles": "Cc1nn(CC(F)(F)F)c(C)c1[C@H](C)c1nc(COCC(F)(F)C(F)F)no1", "% Inhibition": -2, "Z score": 0.25}
{"smiles": "CC(C)c1cc(C(=O)N2C[C@H]3CCN(C(=O)N4CCOCC4)[C@H]3C2)no1", "% Inhibition": -11, "Z score": 1.56}
{"smiles": "Cc1cccc(C(=O)N(C)C[C@@H](C)O)n1", "% Inhibition": -9, "Z score": 1.15}
{"smiles": "Cn1nc(-c2ccc(F)c3cccnc23)nc1N1CCOCC1", "% Inhibition": 1, "Z score": -0.23}
{"smiles": "CN(C)C(=O)CN(C)c1ncc(Cl)cc1F", "% Inhibition": -12, "Z score": 1.33}
{"smiles": "Cn1cc(NC(=O)c2[nH]nc3c2CCCCC3)cn1", "% Inhibition": -17, "Z score": 1.97}
{"smiles": "C#CCCC1(CCC(=O)N2CC(c3ccc(F)cc3)C2)N=N1", "% Inhibition": 6, "Z score": -0.75}
{"smiles": "CNC(=O)[C@@H]1CC[C@](C)(C(=O)NCCCNc2cccnc2)C1(C)C", "% Inhibition": -8, "Z score": 1.35}
{"smiles": "Cc1cc(C(=O)N(C)Cc2ccns2)ns1", "% Inhibition": -14, "Z score": 2.7}
{"smiles": "COCCn1cc(NC(=O)N(C)C[C@H](O)C2CC2)cn1", "% Inhibition": -15, "Z score": 2.01}
{"smiles": "COC(=O)CNC(=O)N1CCN(Cc2nc3cc(C(=O)N(C)C)ccc3o2)CC1", "% Inhibition": 32, "Z score": -3.6}
{"smiles": "CN(CCc1ccccc1)C[C@@H]1OC[C@H](NCc2nccn2C)[C@H]1O", "% Inhibition": 0, "Z score": 0.01}
{"smiles": "Clc1oc2ccccc2c1Cn1cnc(C2CC2)n1", "% Inhibition": 3, "Z score": -0.58}
{"smiles": "CC(=O)N(C)CCc1noc(C2CN(Cc3ccc(F)cc3F)C2)n1", "% Inhibition": -3, "Z score": 0.41}
{"smiles": "C[C@H]1CN(C(=O)c2ccnc3[nH]c(CC4CC4)nc23)C2(CCC2)CO1", "% Inhibition": 1, "Z score": -0.21}
{"smiles": "C[C@H]1CCCN(C(=O)c2ccc3c(c2)nc2n3CCN(C3CCCCC3)C2=O)C1", "% Inhibition": 0, "Z score": 0.04}
{"smiles": "O=S(=O)(c1ccc2c(c1)CCC2)N1CC[C@@]2(CO)CN(Cc3ccccc3)C[C@H]2C1", "% Inhibition": -9, "Z score": 1.04}
{"smiles": "c1cc(CNc2nccn3nccc23)ccn1", "% Inhibition": -18, "Z score": 2.3}
{"smiles": "CCc1ccc(C(=O)NCCC[C@H]2CCOC2)[nH]1", "% Inhibition": 10, "Z score": -1.3}
{"smiles": "CC(C)[C@H](C)N(CC(F)(F)F)C(=O)Cc1cnn(C)c1", "% Inhibition": 1, "Z score": -0.1}
{"smiles": "O=C(O)COc1ccccc1CN1C[C@H]2CC[C@H]1C2", "% Inhibition": -14, "Z score": 2.48}
{"smiles": "O=C(c1cscn1)N1CC[C@H]2[C@H](CCC(=O)N2CCc2ccccn2)C1", "% Inhibition": -11, "Z score": 1.71}
{"smiles": "N#Cc1ccc(C=Cc2nc(=O)cc[nH]2)cc1", "% Inhibition": -4, "Z score": 0.58}
{"smiles": "C[C@H](Oc1ncccc1C(=O)NCC1(CO)CCC1)C(F)(F)F", "% Inhibition": -17, "Z score": 1.81}
{"smiles": "COc1ccc(F)cc1[C@H]1CC(=O)NCc2nc(N)sc21", "% Inhibition": -4, "Z score": 0.51}
{"smiles": "CC1=C(C(=O)c2ccccc2)[C@@](NC(=O)CC(C)C)(C(F)(F)F)C(=O)N1CCc1ccccc1", "% Inhibition": -11, "Z score": 1.74}
{"smiles": "CCC(O)C(C)NC(=O)[C@H]1C[C@]1(C(=O)NC(C)C(O)CC)C(C)C", "note": "(stereo partly drawn)", "% Inhibition": -12, "Z score": 1.73}
{"smiles": "CCn1nccc1CCN1CC(=O)NC2CCCCC21", "note": "(stereo not drawn)", "% Inhibition": -2, "Z score": 0.22}
{"smiles": "CN1CCC(CNC(=O)NC[C@@H]2Cc3ccccc3CO2)CC1=O", "note": "(stereo partly drawn)", "% Inhibition": -4, "Z score": 0.63}
{"smiles": "COc1cccc(-c2cn(CCS(=O)(=O)N(C)C)nn2)n1", "% Inhibition": -4, "Z score": 0.56}
{"smiles": "O=C1C[C@H](c2ccc(F)c(Br)c2)c2cnn(Cc3ccco3)c2N1", "% Inhibition": -11, "Z score": 1.37}
{"smiles": "COC[C@H]1CCCN1S(=O)(=O)NCCOc1ccccc1F", "% Inhibition": -8, "Z score": 1.44}
{"smiles": "CN(C)[C@H]1CCCN(C(=O)NCc2nc(Cc3cccs3)no2)CC1", "% Inhibition": -12, "Z score": 2.12}
{"smiles": "CCNc1nc(C(=O)N2CC(=O)N(CCOC)C2)cs1", "% Inhibition": -7, "Z score": 0.9}
{"smiles": "CC(C)c1csc(NC(=O)[C@H](C)n2cccn2)n1", "% Inhibition": -9, "Z score": 1.5}
{"smiles": "CC(C)N1C(=O)CC(C(=O)NCCOCC(F)(F)F)C1c1ccc(Cl)c(F)c1", "note": "(stereo not drawn)", "% Inhibition": -5, "Z score": 0.8}
{"smiles": "CCN1C(=O)[C@@]2(c3ccccc31)[C@@H]1C(=O)N(c3ccc(Cl)c(C(F)(F)F)c3)C(=O)[C@@H]1[C@@H]1CCCN12", "% Inhibition": -8, "Z score": 0.98}
{"smiles": "CCCCS(=O)(=O)Nc1cnc2c(c1)COCC2", "% Inhibition": 4, "Z score": -0.85}
{"smiles": "CCCNc1ncc(CN2C[C@@H]3CC[C@H]2CN(Cc2c(C)noc2C)C3)cn1", "% Inhibition": 23, "Z score": -2.97}
{"smiles": "CC(C)(C)OC(=O)N1CCC(n2c(=O)[nH]c3ccsc3c2=O)CC1", "% Inhibition": -10, "Z score": 1.12}
{"smiles": "O=C(c1ccc2nccnc2c1)N1CCC(n2cc(-c3ccccc3)nn2)CC1", "% Inhibition": -22, "Z score": 2.76}
{"smiles": "O=C(c1csc(S(=O)(=O)N2CCN(c3ccccc3)CC2)c1)N1CCCC1", "% Inhibition": 0, "Z score": -0.02}
{"smiles": "Fc1cccc(-c2nc(-c3cn(-c4cccc(F)c4)nn3)no2)c1", "% Inhibition": -22, "Z score": 4.26}
{"smiles": "Cc1cc(C)nc(NC(=O)[C@]2(C(C)C)CNC(=O)C2)c1", "% Inhibition": -15, "Z score": 1.45}
{"smiles": "CC(C)c1csc(C(=O)N2CCC3(CC2)C(=O)NCCCN3C)n1", "% Inhibition": 2, "Z score": -0.22}
{"smiles": "Cc1cc(C(=O)NCC#N)c(Cl)cc1F", "% Inhibition": -4, "Z score": 0.81}
{"smiles": "Cc1nc(C(=O)NC2CN(C3CC3)CC2C)n(C)n1", "note": "(stereo not drawn)", "% Inhibition": -5, "Z score": 0.59}
